Measurements: PubChem BioAssay AID1508642 (National Center for Advancing Translational Sciences (NCATS), 2021)
Among all 43,000 compounds or so, about 200 (0.47%) were called active. Inconclusive results (about 12%) are left out. Calls come from the whole dose curve; as a rule, active = well fitted cell-killing curve with a large enough effect; inconclusive = small, poorly fitted or top-dose-only effect, or effect the other way; inactive = flat fitted curve, though single readings scatter. This is one part of the list.

Test: Cell viability qHTS assay in S16 Pmp22-F2sN cells; note: nearly all actives have a fitted effect of over 65% in size
Conditions: S16 Pmp22-F2sN Schwann cells (luciferase reporters placed in the Pmp22 gene) viability, CellTiter-Glo, 24 h; series mostly up to 57.5 µM; activity change, negative = cytotoxicity: at the top concentration
Summary of the method: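 Rat S16 Schwann reporter line, 24 h treatment with library compounds delivered at 23 nL per well. Cell viability by CellTiter-Glo luminescence.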
% is set by controls: 0 for no effect and ±100 for the full control effect.

SMILES | activity change, negative = cytotoxicity
COc1cccc(CNC(=O)c2cc(S(=O)(=O)N3CCCCCC3)cn2C)c1 | inactive: 15.7%
CCOC(=O)c1sc(N2C(=O)c3oc4ccc(C)cc4c(=O)c3C2c2ccccc2F)nc1C (configuration not stated) | inactive: 0.707%
CCC1CN(C(=O)Nc2cc(C)ccc2OC)c2cc(Cl)ccc2O1 (configuration not stated) | inactive: 6.35%
Cc1cc(C)cc(OCC(=O)NC(Cc2c[nH]c3ccccc23)C(=O)O)c1 (configuration not stated) | inactive: 4.15%
CCOc1ccc(S(=O)(=O)Nc2ccc3oc(C)c(C(=O)OC(C)C)c3c2)cc1 | inactive: -3.47%
Cc1cccc(OCC(=O)Nc2c(C(=O)N3CCN(c4ccccc4F)CC3)oc3ccccc23)c1 | inactive: 9.78%
COC(=O)c1ccc(NC(=O)CC2Nc3cc(C)c(C)cc3NC2=O)cc1 (configuration not stated) | inactive: 2.01%
COc1ccccc1NCc1cccn1-c1nnc(N2CCCCCC2)s1 | inactive: -1.08%
Cc1cc(C)n(-c2nc3ccccc3nc2Nc2ccc(Cl)c(Cl)c2)n1 | inactive: 3.33%
CCOC(=O)c1c(NC(=O)c2ccc(Br)cc2)sc2c1CCCC2 | inactive: 6.94%
Cc1nn(C)c2c1c(C(F)(F)F)cc(=O)n2CC(=O)N1CCCCC1 | inactive: 17.4%
O=C(O)c1cccc(Nc2ncnc3ccc(Br)cc23)c1 | inactive: -2.48%
COc1ccc(C(=O)Nc2nnc(S(=O)(=O)N3CCCc4ccccc43)s2)cc1 | inactive: 3.7%
Cc1ccc2nc(-c3cccc(NC(=O)c4ccc(Br)o4)c3)oc2c1 | inactive: 20.2%
CCOc1ccccc1-n1nnc(-c2nc(-c3ccccc3C)no2)c1C | inactive: 2.5%
O=C(Nc1ccc(F)c(Cl)c1)C1CCN(S(=O)(=O)c2ccc3[nH]c(=O)ccc3c2)CC1 | inactive: -2.86%
Cc1ccc2cc(CN(C)C(=O)c3cccc(Cl)c3)c(=O)[nH]c2c1 | inactive: -8.41%
Cc1ccccc1NC(=O)c1cccc2c(=O)c3c([nH]c12)CCCC3 | inactive: -1.54%
Cc1ccc(NC(=O)CSc2ccc3nnc(CCNS(=O)(=O)c4ccccc4)n3n2)cc1Cl | inactive: -3.93%
Cc1ccc(Cl)cc1NC(=O)N1CCC(CN2CCCCCC2)CC1 | inactive: -24.9%
CN(C)CCNC(=O)c1ccc2c(c1)N(Cc1ccccc1)C(=O)c1ccccc1S2(=O)=O | inactive: 9.62%
Cc1ccc2c(c1)N(S(=O)(=O)c1cc(-c3onc(C)c3C)ccc1C)CCO2 | inactive: -13.7%
O=C(CN1C(=O)COc2ccc(S(=O)(=O)N3CCCC3)cc21)N1CCN(c2ccc(Cl)cc2)CC1 | inactive: -0.844%
COc1cccc(-n2cc(C(=O)OCc3ccc(F)c(F)c3)c3ccccc3c2=O)c1 | inactive: 6.8%
COc1ccccc1CNC(=O)CCn1c(=O)c2ccccc2n(CC(=O)Nc2ccc(Br)cc2F)c1=O | inactive: 15.9%
O=C1c2[nH]nc(-c3ccccc3O)c2C(c2cccc(O)c2)N1Cc1ccncc1 (configuration not stated) | inactive: -6.77%
O=C(Cn1cc(C(=O)c2ccncc2)c(=O)c2cc(F)ccc21)Nc1ccc(Cl)cc1 | inactive: -0.428%
